Where a name gives a salt, the structure may show the parent alone. The list shows a part of the results. Most values come without repeats; read them as rough.
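Note: monoclonal Beas-2B line stably carrying CMV promoter-driven AQP5-HiBiT, 5,000 cells per well in 384-well plates, lytic HiBiT plus LgBiT NanoLuc luminescence, FDA-approved drug library screen.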

The assay relates to Beas-2B AQP5-HiBiT reporter cells. The assay is described as follows: AQP5-HiBiT luminescence relative to vehicle (ratio to vehicle); higher = higher AQP5-HiBiT protein abundance. To be noted: 10 µM; 18 h.
As for `CNNCc1ccc(C(=O)NC(C)C)cc1` [Procarbazine hydrochloride], the AQP5-HiBiT luminescence was 0.932.
For `CC1=C(CC(=O)O)c2cc(F)ccc2/C1=C\c1ccc([S+](C)[O-])cc1` (centres undefined) [Sulindac], the AQP5-HiBiT luminescence amounted to 0.971.
As for `COc1ccc(-n2nc(C(N)=O)c3c2C(=O)N(c2ccc(N4CCCCC4=O)cc2)CC3)cc1` [Apixaban], the figure is 0.849; as for `C[C@H](CCC(=O)O)[C@H]1CC[C@H]2[C@@H]3[C@H](O)C[C@@H]4C[C@H](O)CC[C@]4(C)[C@H]3CC[C@]12C` [Chenodeoxycholic acid], 0.896; as for `C/C(O)=C(\C#N)C(=O)Nc1ccc(C(F)(F)F)cc1` [Teriflunomide], 0.65.
As for `CN(C)[C@@H]1C(O)=C(C(N)=O)C(=O)[C@@]2(O)C(O)=C3C(=O)c4c(O)cccc4[C@@](C)(O)[C@H]3C[C@@H]12` [Tetracycline], the figure is 1.22.
In the case of `CN(C)CCC=C1c2ccccc2C=Cc2ccccc21` [Cyclobenzaprine hydrochloride], the AQP5-HiBiT luminescence came to 1.33.
As for `CC(C(=O)O)c1cccc(Oc2ccccc2)c1` (centres undefined) [Fenoprofen calcium], the figure is 0.698; as for `CNC[C@H](O)c1cccc(O)c1` [Phenylephrine hydrochloride], 0.617; as for `COC(=O)c1ccccc1O` [Birch-Me], 0.909.
As for `C[C@@H](O)[C@H]1C(=O)N2C(C(=O)O)=C(SCCNC=N)C[C@H]12` [Imipenem], the figure is 0.742.
As for `Cc1cn(-c2cc(NC(=O)c3ccc(C)c(Nc4nccc(-c5cccnc5)n4)c3)cc(C(F)(F)F)c2)cn1` [Nilotinib (AMN-107)], the figure is 2.81; as for `CO[C@H]1/C=C/O[C@@]2(C)Oc3c(C)c(O)c4c(O)c(c5c(nc6cc(C)ccn65)c4c3C2=O)NC(=O)/C(C)=C\C=C\[C@H](C)[C@H](O)[C@@H](C)[C@@H](O)[C@@H](C)[C@H](OC(C)=O)[C@@H]1C` [Rifaximin], 1.03.
Regarding `CN(Cc1ccc(C(C)(C)C)cc1)Cc1cccc2ccccc12` [Butenafine hydrochloride], the AQP5-HiBiT luminescence came to 1.04.

The values above are taken from the supplement of paper PMC8821664.
